Measurements: publication PMC4336329 (PLoS ONE, 2015)
The whole screen tested about 310,000 compounds, of which about 14,000 (4.5%) showed an effect of 50% or more. Effects have a minus sign here. Some of the results follow.

The molecules below were run against human ether-à-go-go-related gene (hERG) potassium channel (human, UniProt Q12809) (assay: primary screen, population patch clamp on CHO cells stably expressing hERG).
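Note: peak tail current of the secondary pulse compared with the same well before compound.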

human ether-à-go-go-related gene (hERG) potassium channel, sequence (Q12809 whole entry, looked up): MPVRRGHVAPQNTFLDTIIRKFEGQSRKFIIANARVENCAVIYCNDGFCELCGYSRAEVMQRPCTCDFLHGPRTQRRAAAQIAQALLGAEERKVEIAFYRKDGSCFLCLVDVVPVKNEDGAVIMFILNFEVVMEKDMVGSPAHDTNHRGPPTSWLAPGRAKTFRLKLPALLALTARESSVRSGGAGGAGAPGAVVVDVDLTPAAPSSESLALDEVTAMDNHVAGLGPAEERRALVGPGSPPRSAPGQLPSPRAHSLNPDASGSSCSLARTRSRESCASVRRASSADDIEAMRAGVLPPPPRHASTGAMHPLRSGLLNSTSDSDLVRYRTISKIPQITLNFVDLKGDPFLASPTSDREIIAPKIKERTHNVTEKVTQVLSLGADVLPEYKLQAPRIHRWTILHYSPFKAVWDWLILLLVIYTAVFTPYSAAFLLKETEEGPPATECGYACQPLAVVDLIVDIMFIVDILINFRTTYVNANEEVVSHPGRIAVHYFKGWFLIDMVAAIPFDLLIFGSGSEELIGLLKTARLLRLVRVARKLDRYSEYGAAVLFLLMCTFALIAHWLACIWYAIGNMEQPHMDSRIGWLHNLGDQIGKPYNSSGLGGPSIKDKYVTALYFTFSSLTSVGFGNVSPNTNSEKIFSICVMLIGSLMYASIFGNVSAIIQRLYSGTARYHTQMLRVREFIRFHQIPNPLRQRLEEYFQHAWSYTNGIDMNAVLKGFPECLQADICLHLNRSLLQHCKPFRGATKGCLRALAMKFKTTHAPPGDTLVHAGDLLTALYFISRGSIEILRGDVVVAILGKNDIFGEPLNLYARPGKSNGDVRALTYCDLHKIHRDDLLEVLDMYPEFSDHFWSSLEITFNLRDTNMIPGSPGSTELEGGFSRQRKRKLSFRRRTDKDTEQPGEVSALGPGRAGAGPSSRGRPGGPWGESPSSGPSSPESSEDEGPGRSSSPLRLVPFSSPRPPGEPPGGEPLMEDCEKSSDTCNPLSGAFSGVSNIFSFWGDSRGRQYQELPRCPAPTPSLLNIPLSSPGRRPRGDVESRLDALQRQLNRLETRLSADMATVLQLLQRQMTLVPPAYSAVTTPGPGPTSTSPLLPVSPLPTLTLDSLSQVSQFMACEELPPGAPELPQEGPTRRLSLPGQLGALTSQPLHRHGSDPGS

Compound	hERG current change (%, negative = inhibition) at 10uM
O=C(Cn1cnc([N+](=O)[O-])n1)N/N=C/c1cccc(Cl)c1	4.41%
O=C(Cc1c(C(=O)O)[nH]c2ccccc12)NCCN1CCN(c2cccc(Cl)c2)CC1	4.19%
Cc1nnc(NC(=O)CSc2nnc(Cc3cccn3C)n2C)s1	3.54%
CCOC(=O)/C=C(\C)Sc1cc(=O)oc2ccccc12	-40.4%
COc1ccccc1CNC(=O)C(C)NS(=O)(=O)c1ccc(C)cc1 (centres unmarked)	10.8%
O=C(c1ccncc1)N1CCN(c2cccc(C(F)(F)F)c2)CC1	-20%
Cc1ccccc1C(=O)NC1CCN(Cc2nnnn2Cc2ccccc2)CC1	-47.8%
Cc1ccc(Nc2nc(C)cc(C)c2C(N)=O)c(C)c1	17.1%
Cc1ccc(/C=N/N(C)C2=NS(=O)(=O)c3ccccc32)o1	20.7%
O=c1cc(CN2CC(O)Cc3ccc4ccccc4c32)nc2sccn12 (centres unmarked)	-15.3%
Cc1c(C(=O)NC2CC2)oc2ccccc12	2.65%
CN(Cc1ccccc1)C1CCN(Cc2ccccc2[N+](=O)[O-])CC1.O=C(O)C(=O)O	-59.6%
CCCNC(=O)c1ccc2c(c1)CCN2S(C)(=O)=O	12.8%
COc1ccc(C2CC(=O)C=C(NCCC(C)C)C2)cc1 (centres unmarked)	-73.2%
O=C(NCCN1CCOC1=O)C1CCC(=O)N(CCc2ccc(Cl)cc2)C1 (centres unmarked)	-4.72%
Cc1cc(O)c(/C=N/OCc2ccc(Cl)cc2Cl)c(=O)o1	23.5%
CCOC(=O)c1sc(C)c(C(=O)NC2CCCCC2)c1N	-4.79%
Brc1ccc(-c2csc(N3CCc4ccccc4C3)n2)cc1	13.4%
CC(C)(C)N(Cc1ccccc1)C(=O)CSc1nnc(CNc2ccc(F)cc2)o1	1.12%
O=C(CNC(=O)c1ccc(Br)o1)NC1CCCCCC1	-6.85%
CCn1c(=O)n(CC(=O)N2CCN(c3ccccc3F)CC2)c(=O)c2ccccc21	-14.4%
CCc1cc2c(=O)[nH]c(-c3ccncc3)nc2s1	7.03%

Compound	hERG current change (%, negative = inhibition) at 10uM
COc1ccc2nc(Nc3nc(-c4cc5ccccc5oc4=O)cs3)sc2c1	9.3%
CN(C)c1ccc(-c2n[nH]c(=S)n2-c2ccccc2)cc1	17.5%
CCOc1c(OC(C)=O)ccc(/C=C/c2ccc3cccc(OC)c3n2)c1[N+](=O)[O-]	2.88%
COC(=O)C1C(=O)C2=C(CC1C)NC(=O)CC2c1ccc(O)c(OC)c1 (centres unmarked)	9.72%
Cc1ccc(O)c(/C=N/NC(=O)Cc2ccc(Cl)cc2)c1	10.5%
COC(=O)c1ccc(CSc2nnc(CNC(=O)c3cccs3)o2)o1	7.99%
CCCCCCCCCc1nc(N)n[nH]1	-1.04%
Cc1onc(-c2ccccc2Cl)c1C(=O)OCC(=O)N1CCN(c2ccccc2)CC1	-16.1%
CN(C)S(=O)(=O)c1ccc(N/C=C(\[N+](=O)[O-])S(=O)(=O)c2ccccc2)cc1	15.2%
COc1ccc(Cc2nnc(NCCO)[nH]c2=O)cc1OC	18.1%
Cn1c(C(=O)N2CCCC(C(=O)N3CCN(C(=O)c4ccco4)CC3)C2)cc2sccc21 (centres unmarked)	-30.1%
COc1cc(-c2nnc3sc(Cc4ccccc4)nn23)cc(OC)c1OC	-4.77%
CCc1nc2c(nnn2Cc2ccc(F)cc2)c(=O)[nH]1	-3.71%
CCOc1ccc(-c2cnc3ccccc3n2)cc1	14.3%
COC(=O)c1c(NC(=O)COC(=O)CCc2ccc(S(=O)(=O)N3CCOCC3)cc2)sc2c1CCC2	1.26%
CCOC(=O)C1CCN(C(=O)COC(=O)CNC(=O)c2sc3ccccc3c2Cl)CC1	-21.6%
CCC1CCCCN1CCCNC(=O)Cn1c2ccccc2c2nc(=O)cc(C)n21 (centres unmarked)	10.5%
COc1ccccc1C1CCN(Cc2ccccc2)CC1	-34.5%
CC(=O)c1cccc(OCC(O)CN2CC=C(c3ccccc3)CC2)c1.O=C(O)C(=O)O (centres unmarked)	-68.9%
COCCCn1c(=O)/c(=C\c2ccccc2OC(F)F)s/c1=C(/C#N)C(=O)N1CCOCC1	-17.1%
COc1cc2c(cc1NC(=O)c1cccc(F)c1)CCCC2	4.09%
COc1ccc(-c2c(C)[nH]n3c(=O)c(Cc4ccccc4)c(C)nc23)cc1OC	0.0435%
